Some of the results follow.
These sequences were tested against T1, OsWOX13 (Oryza sativa, UniProt Q5QMM3 1-267) (assay: protein-binding microarray (RPBM); PBS, 2% BSA, 51.3 ng/ul salmon testes DNA, 50 uM zinc acetate, 200 nM TF, 25 C, 1 h; high values mean tight binding). Conditions: protein: recombinant; tags: N-terminal polyhistidine and DsRed monomer fusion (pET32a); label: CyDye5-dUTP incorporated in the synthesized complementary strand; 3' TTTTT single-stranded linker to array surface; dsDNA, one strand shown.
T1 sequence: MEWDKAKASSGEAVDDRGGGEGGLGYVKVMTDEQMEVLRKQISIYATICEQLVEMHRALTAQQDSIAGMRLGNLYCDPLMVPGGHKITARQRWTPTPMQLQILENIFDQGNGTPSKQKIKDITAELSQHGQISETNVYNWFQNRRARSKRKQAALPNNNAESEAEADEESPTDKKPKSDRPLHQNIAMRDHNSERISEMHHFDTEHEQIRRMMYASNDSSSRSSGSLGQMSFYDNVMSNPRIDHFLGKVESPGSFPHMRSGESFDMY
Procedure, shortened: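 Transcription factors, each fused N-terminally to a polyhistidine tag and DsRed, were expressed in E. coli BL21-CodonPlus and purified on Ni–NTA. A custom Agilent array was made double-stranded by primer extension with Cy5-dUTP and blocked with 2% BSA. It was incubated with 200 nM protein in PBS, 2% BSA, salmon testes DNA and 50 µM zinc acetate at 25 °C for 1 h, then washed. The binding signal is per-feature fluorescence intensity (arbitrary units) read on an Axon 4000B scanner.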
In the case of “GATGATTTGGAACCATCAGTTGGCTATACTATTAAACTTGCGGAGTCACCTAGTGCAG”, the binding signal is reported as 31800 fluorescence intensity (a.u.). For “CATATAATTTCCTCTGTTTCGCAACCATACTTTGAGAGCCCGGAGTCACCTAGTGCAG”, the binding signal was 6960 fluorescence intensity (a.u.). For “TTCTTGTTGAAATTTGTAATTTAAGATGCATGAGACCACACGGAGTCACCTAGTGCAG”, the binding signal was 3210 fluorescence intensity (a.u.). For “CACAACAATCAATAATGCCAATAATTAATGCAGGTGTGTTCGGAGTCACCTAGTGCAG”, the binding signal was 26200 fluorescence intensity (a.u.). With “CACCATAATTTGACAATGTGGTGCTACAATAAACATTTGCCGGAGTCACCTAGTGCAG” the binding signal was 12600 fluorescence intensity (a.u.). In the case of “TTATAATATAATTACATTATGATTATATTATATTTACGTCCGGAGTCACCTAGTGCAG”, the binding signal is reported as 36600 fluorescence intensity (a.u.). With “CTACGGTAATTTATCTTTAGAGGCGAAACTTCAAATGTATCGGAGTCACCTAGTGCAG” the binding signal was 5470 fluorescence intensity (a.u.). “AACAGATTTATAATTAGTCCCTAAAATAAGTCCAAAACTCCGGAGTCACCTAGTGCAG” was tested, and the binding signal was 11200 fluorescence intensity (a.u.). With “GATAAACAATTATTGATAGACTATTTGTTGGTAAAGGCTTCGGAGTCACCTAGTGCAG” the binding signal was 29300 fluorescence intensity (a.u.). “GAAAATTAAAGAATATATATAATTGATGATCAAGAATGTACGGAGTCACCTAGTGCAG” was tested, and the binding signal was 11200 fluorescence intensity (a.u.). With “TAGGATTGGCAAATGATTTTCATAGGATTTAAATTCCTATCGGAGTCACCTAGTGCAG” the binding signal was 33500 fluorescence intensity (a.u.). “AAAACCTTGATTATTCTCGCTGCGTGTATCCCATTCCCACCGGAGTCACCTAGTGCAG” was tested, and the binding signal was 11000 fluorescence intensity (a.u.). For “ATGATTGCCGTATGATATGTGATACGAAAGAGTTGGGGATCGGAGTCACCTAGTGCAG”, the binding signal was 32700 fluorescence intensity (a.u.). In the case of “GATTATTATTATTAATTAATTACACCGTCCCAACCGGCTTCGGAGTCACCTAGTGCAG”, the binding signal is reported as 33400 fluorescence intensity (a.u.). “TTTAGATAGAACTAACTGGAGCGGAACGGGTGGGTTGTGGCGGAGTCACCTAGTGCAG” was tested, and the binding signal was 16900 fluorescence intensity (a.u.). In the case of “AGTGATTACCGTCTCTTGTTAATTTAGTCTCCAATCGCCCCGGAGTCACCTAGTGCAG”, the binding signal is reported as 40200 fluorescence intensity (a.u.). “GGTGACATGATTTAAGACCAATTGTGTACTTTTACTATTTCGGAGTCACCTAGTGCAG” was tested, and the binding signal was 23500 fluorescence intensity (a.u.). “CCTATAATTAATCGGACGTGTTGGTCGTGTGTATAATATTCGGAGTCACCTAGTGCAG” was tested, and the binding signal was 13400 fluorescence intensity (a.u.). “GCGAAATTAATTAGCAGATTCGTTGCACCTCGCCGTCGGCCGGAGTCACCTAGTGCAG” was tested, and the binding signal was 26800 fluorescence intensity (a.u.). For “GTCTTTCAAAATTGATCGTCATCTAAACGGGGTCTATTTACGGAGTCACCTAGTGCAG”, the binding signal was 5150 fluorescence intensity (a.u.). With “GTGATGACTTCGTCAATCTCTAGGATTTGCCGACCCAGTCCGGAGTCACCTAGTGCAG” the binding signal was 7300 fluorescence intensity (a.u.). For “CTGATTTAAATTGAAAGCAACCGTCTTTTGATTTGTGTAGCGGAGTCACCTAGTGCAG”, the binding signal was 57100 fluorescence intensity (a.u.). For “GGGCCAATTGGGCCCTATTGATTGGGCCGTGCCCAACCGTCGGAGTCACCTAGTGCAG”, the binding signal was 20700 fluorescence intensity (a.u.). With “TAAGTCAATGACTTAAATTTGGGTGGGCAAGTTCTACCACCGGAGTCACCTAGTGCAG” the binding signal was 3960 fluorescence intensity (a.u.). With “AGTAATTAATAACCTATTGGTAGGTAAGATTACGTCTAAACGGAGTCACCTAGTGCAG” the binding signal was 10900 fluorescence intensity (a.u.). In the case of “TTGTAATCTGAAACGGATTGAGTAATACCTAATCAGCCTACGGAGTCACCTAGTGCAG”, the binding signal is reported as 3230 fluorescence intensity (a.u.). For “ATAATTGTTCAATGTTACTGCGAAAACTCTTGCAGTTGCACGGAGTCACCTAGTGCAG”, the binding signal was 6900 fluorescence intensity (a.u.). In the case of “ATATGCTAAACAAATTAGAATTACAATTTATATTGGACGACGGAGTCACCTAGTGCAG”, the binding signal is reported as 6090 fluorescence intensity (a.u.). In the case of “TTGGTCAAATTGGAGTGGATTGGGTGCGTCCGTGTCCAAACGGAGTCACCTAGTGCAG”, the binding signal is reported as 11600 fluorescence intensity (a.u.). With “ATATATATATATATATATATATGTGTGTATATATATATATCGGAGTCACCTAGTGCAG” the binding signal was 6150 fluorescence intensity (a.u.). For “TACATACAAGTTACAGTGTAATTACACTACGATTGTACTACGGAGTCACCTAGTGCAG”, the binding signal was 3630 fluorescence intensity (a.u.). “TCACACTATCATTGTAACAAATTGAAATATGTCACTAATGCGGAGTCACCTAGTGCAG” was tested, and the binding signal was 10200 fluorescence intensity (a.u.). With “CAAATCATGACGCAATCAGGCTTAAAAGATTTGTCTCGCACGGAGTCACCTAGTGCAG” the binding signal was 17800 fluorescence intensity (a.u.). For “CTAGATCATCAAAACAAATTATGGCTGTGTTTAGTTCAGCCGGAGTCACCTAGTGCAG”, the binding signal was 8260 fluorescence intensity (a.u.). With “GAATAATTAAACAAGTTGGTTCACCTGTCCCAGCTGCTAACGGAGTCACCTAGTGCAG” the binding signal was 20900 fluorescence intensity (a.u.). With “ATCGGTGAATTAATTTACAGCGCTAGAAATCTTGATGGATCGGAGTCACCTAGTGCAG” the binding signal was 11500 fluorescence intensity (a.u.). “CGATCTGATGGACGGTCCTGATTGATCCCGATCTATACAACGGAGTCACCTAGTGCAG” was tested, and the binding signal was 26200 fluorescence intensity (a.u.). “ACCTCGTCACCTCGTCTTAATTACTTTGGAGTGGCATGCACGGAGTCACCTAGTGCAG” was tested, and the binding signal was 8950 fluorescence intensity (a.u.). With “ATTTCAGATTGGGTTATTTGAGAGCTAAATTTCTAATGTACGGAGTCACCTAGTGCAG” the binding signal was 4680 fluorescence intensity (a.u.). “TGTAACTCTCGTATGTAATTGAGTAAAACATGTTGGTGCTCGGAGTCACCTAGTGCAG” was tested, and the binding signal was 4540 fluorescence intensity (a.u.). “CACTAACTAATAATTAATCAAGCCGGTAGGCGCAGCGTGGCGGAGTCACCTAGTGCAG” was tested, and the binding signal was 32900 fluorescence intensity (a.u.). “TTTTATTGTCCAATTGGATTTTGTATCTACGTTTGAATTTCGGAGTCACCTAGTGCAG” was tested, and the binding signal was 3470 fluorescence intensity (a.u.).
